Results taken from the supplement of paper PMC3334620.
Whole data set: some 33,000 sequences, median “E-score (-0.5 to 0.5)” near -0.035, cut for the highest 2% near 0.34. The list shows a part of the results.

Biological target: T1, Mot3 (UniProt P54785)
T1 sequence: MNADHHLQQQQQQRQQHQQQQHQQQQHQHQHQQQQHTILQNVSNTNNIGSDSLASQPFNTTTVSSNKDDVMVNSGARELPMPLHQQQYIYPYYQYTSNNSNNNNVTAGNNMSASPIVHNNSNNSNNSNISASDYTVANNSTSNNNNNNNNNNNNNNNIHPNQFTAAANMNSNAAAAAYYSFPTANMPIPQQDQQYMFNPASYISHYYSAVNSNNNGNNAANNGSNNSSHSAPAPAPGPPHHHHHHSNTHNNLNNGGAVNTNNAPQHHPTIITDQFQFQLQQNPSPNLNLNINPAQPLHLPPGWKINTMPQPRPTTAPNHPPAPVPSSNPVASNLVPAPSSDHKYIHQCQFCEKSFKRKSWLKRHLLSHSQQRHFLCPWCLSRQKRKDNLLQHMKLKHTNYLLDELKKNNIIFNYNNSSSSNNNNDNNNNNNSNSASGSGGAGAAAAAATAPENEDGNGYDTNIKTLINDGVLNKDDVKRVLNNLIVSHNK
Experiment: PBM E-score (8-mer binding enrichment) (E-score (-0.5 to 0.5)); higher = stronger / more preferred TF binding; most listed sequences are background and not binding sites
Details: protein concentration: 200 nM; construct: GST-full length
Procedure, shortened: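 The E-score, a modified Wilcoxon-Mann-Whitney statistic, was computed by the Universal PBM Analysis Suite for every ungapped eight-base word pooled with its reverse complement. Scans behind it were normalised with masliner after bound GST-tagged yeast transcription factors were detected with fluorescent anti-GST. The proteins, at about 100-200 nM, had been applied to universal all-10-mer Agilent arrays made double-stranded by primer extension.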

Row | Sequence | PBM E-score
1 | CGTCCTAC | -0.234
2 | AGACCAGG | -0.0873
3 | ATAGTAAT | 0.15
4 | AGTTACAA | 0.204
5 | AGCGCAAA | -0.0417
6 | AACTAGAT | 0.138
7 | GACGGCGC | -0.21
8 | CCCATACC | -0.122
9 | GAACATCC | 0.123
10 | ACACTAAG | -0.0518
11 | TCTATGCA | 0.172
12 | ATGACGTG | 0.227
13 | GACCACGA | -0.207
14 | ACGAAGCC | -0.0622
15 | CTGTACCA | -0.152
16 | AATGCTGC | -0.0329
17 | CACGCGTA | 0.305
18 | GCAGTGAC | -0.0936
19 | GGCATTCA | -0.0157
20 | GGAAAAAC | 0.172
21 | GTGCTAGA | 7e-05
22 | GCTGTCCA | -0.0862

Row | Sequence | PBM E-score
23 | TCAGTCCA | -0.0843
24 | CTTTGAAA | 0.0644
25 | AAGCTAGT | -0.004
26 | AACCAATT | -0.0394
27 | AACCGCTA | -0.178
28 | CGTCAAAC | 0.0694
29 | AAGTCGAA | -0.152
30 | CGCTGCGC | -0.353
31 | ATCAATAA | 0.0626
32 | ATCTCGCC | -0.275
33 | TCCGGCCA | -0.225
34 | ATACGTTG | 0.0416
35 | CGCATCAC | -0.15
36 | AAACCTTT | -0.0903
37 | CATGTCGA | 0.351
38 | TAATTTGA | -0.0388
39 | AAAGATCT | 0.0158
40 | TACTTATA | 0.0911
41 | CCAGTTCC | -0.118
42 | CGGCGGCA | -0.297
43 | CGGCAGTC | -0.209
44 | TATAGCCA | -0.0743

Row | Sequence | PBM E-score
45 | AGAGACGG | -0.156
46 | AGGTGTGA | -0.128
47 | CGACGCAA | -0.169
48 | TCGCCGCA | -0.202
49 | AAGAGGGA | -0.128
50 | ATAGCAAC | 0.0102
51 | ACTAGTGG | -0.214
52 | AGTCTGTC | -0.119
53 | AGGACCTA | -0.193
54 | TAGGCGAA | 0.0399
55 | AATGACAA | 0.12
56 | GCGGTCAC | -0.246
57 | AGGTCACA | 0.0282
58 | AACAACGA | 0.0086
59 | CAGGGCGG | -0.241
60 | CCAGTTTA | 0.193
61 | TAATACCA | 0.173
62 | AGCGTCGG | -0.206
63 | ACAGAGAG | -0.224
64 | AACTTCTA | 0.0105
65 | CCATGTTA | 0.339
66 | AGCGATAG | -0.314

Row | Sequence | PBM E-score
67 | CCTCGTAA | 0.29
68 | ACGAGACC | -8e-05
69 | CGCAGGCG | 0.17
70 | GGAGGTAC | 0.0528
71 | ATGCCACA | -0.156
72 | CGAGTTCC | 0.085
73 | TAATCATA | 0.156
74 | GAAACTGC | -0.198
75 | CCCCATTC | -0.212
76 | GACGCCGA | -0.175
77 | GCCGGGAC | -0.394
78 | CCACCAGC | -0.0857
79 | AAGGCCAC | 0.234
80 | AGGAGCGG | -0.334
81 | GCGTCGCA | -0.0675
82 | CACAAATA | 0.182
83 | CGATACAA | 0.0148
84 | AGAGAGCA | -0.281
85 | ACCAATAC | 0.0216
86 | TTAACAAA | 0.261
87 | ACAATACA | 0.334
88 | CGGGTCCA | -0.325

Row | Sequence | PBM E-score
89 | CCGCGCGG | -0.0907
90 | AGGGTGCG | -0.0487
91 | TGATGACA | 0.0944
92 | CGAATTAC | 0.166
93 | GCCCGCTA | -0.227
94 | CGCCGTAG | -0.106
95 | GGCGAACC | -0.175
96 | CAAAACTC | 0.0103
97 | ACTTATGC | 0.0259
98 | GAGATATC | -0.004
99 | TCCCGCGA | -0.232
100 | CATAGCCG | -0.163
101 | GTGCTAAA | 0.0852
102 | ACCACTAC | -0.0199
103 | GCAACTTA | 0.103
104 | CCCTCGAA | -0.0832
105 | ATGCATTC | -0.00555
106 | GCTCCGCA | -0.0849
107 | TCGGAAAA | -0.00799
108 | AATGACCA | -0.203
109 | AGTTCGAC | 0.0301
110 | CGTGCACA | -0.0446
